The source of these data is the supplement of paper PMC6135742.

Several values for one entry are separate records, joined by “and”; a condition that tells them apart may be missing. Equal values may be shown once. Where a name gives a salt, the structure may show the parent alone. ± gives the standard deviation of the averaged measurements. Whole data set: some 2,600 compounds, median “total cell number (DAPI+ nuclei) relative to DMSO vehicle control” near -1.4, cut for the lowest 2% near -23. The list shows a part of the results.

This assay concerns jimpy (Plp1 jimpy) mouse iPSC-derived oligodendrocyte progenitor cells. As to the kind of experiment: total cell number (DAPI+ nuclei) relative to DMSO vehicle control (SDs above negative control mean); higher = more surviving cells. The note with it: 10 µM; 3 days.
Regarding `CCCc1nn(C)c2c(=O)[nH]c(-c3cc(S(=O)(=O)N4CCN(C)CC4)ccc3OCC)nc12` [Sildenafil citrate salt], the total cell number was -1.42.
`CCCc1nn(C)c2c(=O)[nH]c(-c3cc(S(=O)(=O)N4CCN(C)CC4)ccc3OCC)nc12` [Sildenafil Citrate] registered a total cell number of -0.987.
Under `OC[C@H]1NC[C@@H](O)[C@@H]1O` [1,4-Dideoxy-1,4-imino-D-arabinitol] stands -0.282; under `Cc1c(C(=O)N2CCOc3ccc(-c4ccc(N)nc4)cc3C2)ccc(S(C)(=O)=O)c1F`, -3.21; under `CC(C)(O)CC(=O)NCCn1ccc2ncnc(Nc3ccc(Oc4cccc(C(F)(F)F)c4)c(Cl)c3)c21`, -0.607.
Take `CCC1(C)CC(=O)NC1=O` (stereo not drawn) [Ethosuximide]: the total cell number is -0.463.
In the case of `C[C@H](Nc1ncnc2nc[nH]c12)c1cc2cccc(Cl)c2c(=O)n1-c1ccccc1`, the total cell number is -10.8.
Under `CC(NCCc1ccc(O)cc1)C(O)c1ccc(O)cc1` (stereo not drawn) [Ritodrine HCl] stands -1.07; under `CC(NCCc1ccc(O)cc1)C(O)c1ccc(O)cc1` (stereo not drawn) [Ritodrine hydrochloride], 0.863; under `Cc1nc2c([nH]1)c(=O)n(C)c(=O)n2Cc1ccco1` [Furafylline], -0.322.
As for `NC1CONC1=O` (racemic) [DL-Cycloserine], the figure is -1.2.
Under `CN(C)CCCc1cc(C(=O)Nc2ccc(-c3ccncc3)cc2)ccc1O` stands -2.7.
For `CC(C)c1cnn2c(NCc3ccccc3)cc(NCCCCCCN)nc12`, the total cell number is -17.6.
Regarding `COc1cc2nc(N3CCCN(C)CC3)nc(NC3CCN(Cc4ccccc4)CC3)c2cc1OC`, the total cell number was -10.1 and -15.2.
As for `O=S(=O)(c1cccc2cnccc12)N1CCCNCC1` [Fasudil (HA-1077) HCl], the total cell number was -0.616.
`Cc1nc2sccn2c(=O)c1CCN1CCC(=C(c2ccc(F)cc2)c2ccc(F)cc2)CC1` [Ritanserin] displayed a total cell number of -0.524.
`CCOC(=O)C1=C(C)NC(C)=C(C(=O)OC)C1c1cccc(Cl)c1Cl` (stereo not drawn) [Felodipine] had a total cell number of 0.634 ± 0.76.
Under `O=C1c2c(O)ccc(O)c2C(=O)c2c(NCCNCCO)ccc(NCCNCCO)c21` [Mitoxantrone HCl] stands 38.3.
As for `O=C1c2c(O)ccc(O)c2C(=O)c2c(NCCNCCO)ccc(NCCNCCO)c21` [Mitoxantrone], the figure is 16.1; as for `CCOC(=O)c1ccc(NC2CCCCC2)c(N)c1` [Ferrostatin-1 (Fer-1)], -2.44.
As for `CCOC(=O)c1ccc(NC2CCCCC2)c(N)c1` [Ferrostatin-1], the figure is -4.14; as for `O=C(NC(Cc1cc(=O)[nH]c2ccccc12)C(=O)O)c1ccc(Cl)cc1` (stereo not drawn) [Rebamipide], -1.29; as for `CCN1C(=O)C=CC1=O` [N-Ethylmaleimide], -0.302.
For `COC(=O)/C=C/C(=O)OC` [Dimethyl Fumarate], the total cell number is -1.31.
As for `O=C(NNc1nc2cc(F)ccc2n2cccc12)c1cnccn1`, the figure is -16.2; as for `CC(C)c1cc(C(C)C)c(CC(=O)NS(=O)(=O)Oc2c(C(C)C)cccc2C(C)C)c(C(C)C)c1` [Avasimibe], -3.06.
The molecule `C[N+](C)(C)CCOC(N)=O` [Carbachol] had a total cell number of -1.57.
As for `CN(c1ncccc1CNc1nc(Nc2ccc3c(c2)CC(=O)N3)ncc1C(F)(F)F)S(C)(=O)=O`, the figure is -8.32 and -9.54 and -12.3; as for `Cn1nc(C(C)(C)C)cc1C(=O)N[C@@H](Cc1cccc(Cl)c1)C(=O)NCC#N` [Cathepsin Inhibitor 1], -0.558.
As for `CN(C)CCc1c[nH]c2ccc(CS(=O)(=O)N3CCCC3)cc12` [Almotriptan Malate], the figure is 1.71; as for `CCc1ccc(OCc2ccccc2C(=O)Nc2ccc3nc(C)cc(N)c3c2)cc1`, -12.5.
As for `CC(CNC(=O)c1cccnc1)NC(=O)c1cccnc1` (stereo not drawn) [Nicaraven], the figure is 0.325.
The molecule `O=C(Nc1ccccc1)N1CCN(c2nc(-c3ccccc3)ns2)CC1` gave a total cell number of 0.543.
Under `CCN1CCCC1CNC(=O)c1cc(S(N)(=O)=O)ccc1OC` (single isomer, unassigned; (-)) [(-)-Sulpiride] stands -1.34; under `CCCCc1ncc(/C=C(\Cc2cccs2)C(=O)O)n1Cc1ccc(C(=O)O)cc1` [Eprosartan Mesylate], -3.92; under `CCCCc1ncc(/C=C(\Cc2cccs2)C(=O)O)n1Cc1ccc(C(=O)O)cc1` [Eprosartan mesylate], 0.0143.
Under `N[C@@H](Cc1ccc(O)c(O)c1)C(=O)O` [L-3,4-Dihydroxyphenylalanine] stands -0.745; under `CN1CCN2c3ccccc3Cc3ccccc3C2C1` (stereo not drawn) [Mianserin HCl], -11.1.
In turn, `CN1CCN2c3ccccc3Cc3ccccc3C2C1` (stereo not drawn) [Mianserin hydrochloride] displayed a total cell number of -4.12.
As for `CCCCCCCCOc1ccccc1C(=O)Nc1ccc(C(=O)OCC[N+](C)(CC)CC)cc1` [Otilonium Bromide], the figure is 0.445.
For the molecule `CN1c2ccccc2C(=O)N2CCc3c([nH]c4ccccc34)C21` (stereo in doubt) [Evodiamine], the total cell number is -6.87.
With `O=c1cc(N2CCOCC2)oc2c(-c3ccccc3)cccc12`, the total cell number is -7.46.
As for `O=c1cc(N2CCOCC2)oc2c(-c3ccccc3)cccc12` [LY-294,002 hydrochloride], the figure is -4.34; as for `Cc1cnc(NC(=O)Nc2cc(Br)c(C)cc2OC[C@@H]2CNCCO2)cn1`, -9.83; as for `O=C(O)c1cc(=O)c2ccccc2[nH]1` [Kynurenic acid], -0.249.
Regarding `CC(C)NNC(=O)c1ccncc1` [Iproniazid phosphate], the total cell number was -1.44.
The molecule `Cc1ccc(Sc2cncc3sc(C(N)=O)cc23)cc1` displayed a total cell number of 0.0291.
Under `Cc1c(C(=O)Nc2ccc(N3C[C@@H](C)O[C@@H](C)C3)nc2)cccc1-c1ccc(OC(F)(F)F)cc1` [LDE225 (NVP-LDE225,Erismodegib)] stands -6.46; under `Nc1cc(C(F)(F)F)c(-c2cc(N3CCOCC3)nc(N3CCOCC3)n2)cn1` [BKM120 (NVP-BKM120, Buparlisib)], -11.1.
For `OCC(CO)N[C@H]1C[C@](O)(CO)[C@@H](O)[C@H](O)[C@H]1O` [Voglibose], the total cell number turned out to be 2.41.
`CCOC(CN1CCN(CC(C)C(=O)c2ccccc2)CC1)c1ccccc1` (stereo not drawn) [Eprazinone 2HCl] displayed a total cell number of 1.16.
Under `C=CCNc1ncnc2ccc(Br)cc12` stands -1.82; under `Cc1ccc(Nc2nccc(N(C)c3ccc4c(C)n(C)nc4c3)n2)cc1S(N)(=O)=O`, -11.7.
As for `Cc1ccc(Nc2nccc(N(C)c3ccc4c(C)n(C)nc4c3)n2)cc1S(N)(=O)=O` [Pazopanib], the total cell number is -6.24.
As for `CCc1ccc(/C=C2/SC(=S)NC2=O)cc1`, the total cell number was -1.05 ± 0.18.
Take `COc1cc(Nc2ncc3c(n2)-c2ccc(Cl)cc2C(c2c(F)cccc2OC)=NC3)ccc1C(=O)O` [Alisertib (MLN8237)]: the total cell number was -12.8.
Under `CCCCC(=O)N(Cc1ccc(-c2ccccc2-c2nnn[nH]2)cc1)[C@H](C(=O)O)C(C)C` [Valsartan] stands -2.01; under `CO[C@H]1C[C@@H]2CC[C@@H](C)[C@@](O)(O2)C(=O)C(=O)N2CCCC[C@H]2C(=O)O[C@H]([C@H](C)C[C@@H]2CC[C@@H](OC(=O)C(C)(CO)CO)[C@H](OC)C2)CC(=O)[C@H](C)/C=C(\C)[C@@H](O)[C@@H](OC)C(=O)[C@H](C)C[C@H](C)/C=C/C=C/C=C/1C` [Temsirolimus], -3.63; under `CO[C@H]1C[C@@H]2CC[C@@H](C)[C@@](O)(O2)C(=O)C(=O)N2CCCC[C@H]2C(=O)O[C@H]([C@H](C)C[C@@H]2CC[C@@H](OC(=O)C(C)(CO)CO)[C@H](OC)C2)CC(=O)[C@H](C)/C=C(\C)[C@@H](O)[C@@H](OC)C(=O)[C@H](C)C[C@H](C)/C=C/C=C/C=C/1C`, -4.55.
`N#Cc1c(Oc2ccc(F)c(NC(=O)Cc3cccc(C(F)(F)F)c3)c2)ccc2nc(NC(=O)C3CC3)sc12` registered a total cell number of -5.14.
The molecule `CCC[C@@H]1C[C@@H](C(=O)N[C@@H]([C@H]2O[C@H](SC)[C@H](O)[C@@H](O)[C@H]2O)[C@@H](C)O)N(C)C1` [Lincomycin HCl] showed a total cell number of 0.306.
Molecule `O=c1cc[nH]c(=O)[nH]1` [Uracil] returned a total cell number of -0.671.
Turning to `COc1ccc(-c2cc(=O)c3c(OC)c(OC)c(OC)c(OC)c3o2)cc1OC` [Nobiletin], the total cell number was -5.17.
As for `CCOC(=O)N1c2ccc(C(F)(F)F)cc2[C@@H](N(Cc2cc(C(F)(F)F)cc(C(F)(F)F)c2)C(=O)OC)C[C@H]1CC` [Torcetrapib], the total cell number was -3.59.
As for `Cc1ccc(C(=O)Nc2cccc(C(F)(F)F)c2)cc1Nc1nc(-c2cccnc2)nc2c1cnn2C`, the figure is -4.71; as for `Cc1cccc(-c2nn3c(c2-c2ccnc4ccc(C(N)=O)cc24)CCC3)n1`, 0.511.
Molecule `CC(C)c1nc(CN(C)C(=O)N[C@@H](CCN2CCOCC2)C(=O)N[C@H](CC[C@H](Cc2ccccc2)NC(=O)OCc2cncs2)Cc2ccccc2)cs1` [Cobicistat (GS-9350)] returned a total cell number of -4.6.
As for `C#C[C@]1(O)CC[C@H]2[C@@H]3CCC4=Cc5oncc5C[C@]4(C)[C@H]3CC[C@@]21C` [Danazol], the figure is -0.947.
Under `Cc1cc(C)nc(NS(=O)(=O)c2ccc(NC(=S)NC(=O)COc3ccc(Br)cc3Cl)cc2)n1` stands -1.47.
The molecule `O=C(Nc1ccc([N+](=O)[O-])cc1Cl)c1cc(Cl)ccc1O` [Niclosamide] registered a total cell number of -2.42.
Consider `O=C(Nc1cccnc1)N1CCC(Cc2cccc(Oc3ccc(C(F)(F)F)cn3)c2)CC1`, for which the total cell number was determined as 0.69.
Under `O=C(Nc1cccnc1)N1CCC(Cc2cccc(Oc3ccc(C(F)(F)F)cn3)c2)CC1` [PF 3845 hydrate] stands 2.55.
On to `Cc1ccc(CNc2ncnc3ccc(-c4ccc(CO)o4)cc23)o1`, for which the total cell number was -1.93.
Take `CC12CC3CC(C)(C1)CC(N)(C3)C2` [Memantine hydrochloride]: the total cell number was -2.07.
As for `CC12CC3CC(C)(C1)CC(N)(C3)C2` [Memantine HCl], the total cell number is -0.545.
As for `CN1C(C(=O)Nc2ccccn2)=C(O)c2sc(Cl)cc2S1(=O)=O` [Lornoxicam], the figure is -0.33.
Molecule `O=C(O)c1ccc(C=C2SC(=S)N(c3cccc(C(F)(F)F)c3)C2=O)cc1` came in with a total cell number of 0.711.
Under `COc1ccc(-c2cc(=O)c3c(OC)c(OC)c(OC)c(OC)c3o2)cc1` [Tangeretin] stands -5.79.
